The values below come from PubChem BioAssay AID1745853 (National Center for Advancing Translational Sciences (NCATS), 2022).

Test in all cases: Primary Screen for Target Class Profiling of Small Molecule Inhibitors of Methyltransferases
The target in experiment [1] is Glycine N-methyltransferase (Homo sapiens) (UniProt Q14749). The settings on record: purified enzyme, MTase-Glo SAH luminescence; measured here: GNMT inhibition; at 40 µM; stronger effect = lower value. Summed up: (§1)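 Each enzyme was reacted with SAM and its substrate, with compounds tested once at 40 uM; SAH formed was read by MTase-Glo luminescence.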
Experiment [2] deals with Guanidinoacetate N-methyltransferase (Homo sapiens) (UniProt Q14353). The following applies: purified enzyme, MTase-Glo SAH luminescence; measured here: GAMT inhibition; at 40 µM; stronger effect = lower value. Summed up:
as §1

Experiment [3] concerns the target Histamine N-methyltransferase (Homo sapiens) (UniProt P50135). The following applies: purified enzyme, MTase-Glo SAH luminescence; measured here: HNMT inhibition; at 40 µM; stronger effect = lower value. Summed up:
as §1

For experiment [4], the target named is Nicotinamide N-methyltransferase (Homo sapiens) (UniProt P40261). The following applies: purified enzyme, MTase-Glo SAH luminescence; measured here: NNMT inhibition; at 40 µM; stronger effect = lower value. Summed up:
as §1

Experiment [5] has as its target Phenylethanolamine N-methyltransferase (Homo sapiens) (UniProt P11086). The settings on record: purified enzyme, MTase-Glo SAH luminescence; measured here: PNMT inhibition; at 40 µM; stronger effect = lower value. A digest of the protocol: as §1

Where “and” joins values, the source holds several entries; their conditions need not be identical. Identical values can stand only once. The list shows a part of the results. These are further read-outs of the screen, such as a control signal, another cell line or another target. No call is given for them.
On the % scale 0 is the no-effect control and ±100 the full control effect.

Regarding `CC(C)n1ccnc1CN1CCC2(CCCO2)CCC1=O` (stereo not given), the activity change, negative = inhibition in experiment [1] was -3.07%; in experiment [2], -4.64%; in experiment [3], -0.888%; in experiment [4], -9.42%; in experiment [5], -4%.

In the case of `CCn1cc(CN2C[C@@H]3C(=O)N(CCCN4CCCC4=O)C(=O)[C@@H]3C2)cn1`, the activity change, negative = inhibition in experiment [1] was 0.537%; in experiment [2], -1.17%; in experiment [3], 2.85%; in experiment [4], 1.83%; in experiment [5], -2.4%.

Consider `CN1C(=O)c2cc(C(=O)NCCCN3CCc4ccccc4C3)nn2CC1(C)C(=O)NCc1ccccc1` (stereo not given), for which the activity change, negative = inhibition in experiment [1] was -14%; in experiment [2], -1.02%; in experiment [3], -10.8%; in experiment [4], -4.21%; in experiment [5], -5.05%.

For the molecule `CC(=O)O[C@@H]1C[C@@H](OC(C)=O)C(C)(C)/C=C/[C@H](C)[C@H](OC(C)=O)[C@@]2(O)C[C@H](C)[C@H](OC(=O)c3ccccc3)[C@@H]2/C=C/1C`, the activity change, negative = inhibition is 0.974% in experiment [1]; 2.52% in experiment [2]; 5.13% in experiment [3]; -11.7% in experiment [4]; -8.77% in experiment [5].

Regarding `CCOc1ccc(-c2ccc(Cn3c(CC(C)(C)C(=O)O)c(SC(C)(C)C)c4cc(OCc5ccc(C)cn5)ccc43)cc2)cn1`, the activity change, negative = inhibition in experiment [1] is -15.7% and -8.52%; in experiment [2], -15.6% and -5.87%; in experiment [3], -7.78% and 8.38%; in experiment [4] it was -86.6% and -74%; in experiment [5] it was -40% and -21.4%.

Regarding `COc1cc2ncnc(Nc3ccc(F)c(Cl)c3)c2cc1OCCCN1CCOCC1`, the activity change, negative = inhibition in experiment [1] is -68.4%; in experiment [2], -62.8%; in experiment [3] it was -76.3%; in experiment [4], -68.7%; in experiment [5], -74.3%.

In the case of `COCC1(CNCc2c(C)noc2C)C[C@@H](O)[C@@H](O)C1` (stereo not given in full), the activity change, negative = inhibition was -2.93% in experiment [1]; -2.73% in experiment [2]; -0.172% in experiment [3]; -2.56% in experiment [4]; -0.608% in experiment [5].

In the case of `C=C(C(=O)O)[C@H]1C[C@]2(C)C(=O)CC[C@]23O[C@H]1C[C@@H]3C`, the activity change, negative = inhibition in experiment [1] was -2.81%; in experiment [2] it was -15.7%; in experiment [3] it was 4.56%; in experiment [4] it was -25.3%; in experiment [5] it was 0.383%.

Take `CCOc1ccccc1CN1C(=O)c2nc3ccccc3n2CC1(C)C(=O)NC1CCCCC1C` (stereo not given): the activity change, negative = inhibition in experiment [1] turned out to be 2.07%; in experiment [2], 0%; in experiment [3], 2.67%; in experiment [4], 0.003%; in experiment [5], 0.379%.

With `COc1ccccc1CNC(=O)C1(C)Cn2c(cc3ccccc32)C(=O)N1Cc1ccccn1` (stereo not given), the activity change, negative = inhibition is 1.2% in experiment [1]; 3.19% in experiment [2]; 2.56% in experiment [3]; 4.79% in experiment [4]; 1.57% in experiment [5].

Consider `Cn1c(=O)n(C)c2cc(CNc3ccc(N4CCOCC4)c(C(=O)O)c3)ccc21`, for which the activity change, negative = inhibition in experiment [1] is -1.95%; in experiment [2] it was 0%; in experiment [3] it was 8.23%; in experiment [4] it was 12%; in experiment [5], -0.942%.

As for `Cc1ccc(CN2CCCC(C(=O)N3CCN(c4ccccn4)CC3)CCNC(=O)CC2)s1` (stereo not given), the activity change, negative = inhibition in experiment [1] is -4.75%; in experiment [2] it was -3.86%; in experiment [3] it was -1.39%; in experiment [4], -11.5%; in experiment [5], -0.798%.

Turning to `OCC1(CCCc2ccccc2)CCN(Cc2cccc3c2OCO3)CC1`, the activity change, negative = inhibition is -3.79% in experiment [1]; -5.47% in experiment [2]; -40.6% in experiment [3]; -16.1% in experiment [4]; -22.4% in experiment [5].

With `CN1C(=O)c2cc(C(=O)N3CCN(C4CCCCC4)CC3)nn2CC1(C)C(=O)NC1CCCCCC1` (stereo not given), the activity change, negative = inhibition was -1% in experiment [1]; 0% in experiment [2]; 0.89% in experiment [3]; -5.55% in experiment [4]; -2.84% in experiment [5].

In the case of `O=S(=O)(c1ccc2[nH]c3c(c2c1)CCCC3)N1CCN(c2cccc(C(F)(F)F)c2)CC1`, the activity change, negative = inhibition in experiment [1] was 2.55%; in experiment [2], 0%; in experiment [3], 0.268%; in experiment [4], -4.25%; in experiment [5] it was 0.458%.

In the case of `CC1CCC2(C(=O)O)CCC3(C)C(=CCC4C5(C)CCC(O)C(C)(CO)C5CCC43C)C2C1(C)O` (stereo not given), the activity change, negative = inhibition is -3.2% in experiment [1]; 0.07% in experiment [2]; 2.73% in experiment [3]; -10.7% in experiment [4]; -8.91% in experiment [5].

In the case of `Cc1ccccc1CN1C(=O)c2cc3sccc3n2CC1(C)C(=O)NC1CCCC(C)C1C` (stereo not given), the activity change, negative = inhibition in experiment [1] came to 2.97%; in experiment [2], 0%; in experiment [3], 5.72%; in experiment [4], 3.26%; in experiment [5] it was 1.11%.

In the case of `O=C(N[C@H]1CO[C@H]2[C@@H]1OC[C@@H]2n1nnnc1Oc1ccc(-n2ccnc2)cc1)c1ccccc1`, the activity change, negative = inhibition in experiment [1] was -2.87%; in experiment [2], -2.44%; in experiment [3] it was 0.369%; in experiment [4], -4.45%; in experiment [5], 12.3%.

As for `COC1CCOC2(CCN(C(=O)CCc3nc4ccccc4s3)CC2)C1` (stereo not given), the activity change, negative = inhibition in experiment [1] was -4.42%; in experiment [2], -5.12%; in experiment [3], -2.78%; in experiment [4], -10.6%; in experiment [5], -10.3%.

Take `CC(C)NC(=O)c1onc(-c2ccc(Cl)cc2)c1[C@H](C)O`: the activity change, negative = inhibition was -6.97% in experiment [1]; -6.95% in experiment [2]; -4.49% in experiment [3]; -9.64% in experiment [4]; -0.276% in experiment [5].

As to `O=C(c1ccc(CN2C(=O)NC3(CCOCC3)C2=O)cc1)N1CCc2ccccc2C1`, the activity change, negative = inhibition in experiment [1] is -7.59%; in experiment [2], -8.8%; in experiment [3], -5.23%; in experiment [4], -20.4%; in experiment [5], -5.77%.

Consider `Cc1ccc(Nc2ccnc(N3CCCN([S+](=O)([O-])c4ccc(C)cc4)C3)n2)cc1`, for which the activity change, negative = inhibition is -1.76% in experiment [1]; 2.37% in experiment [2]; 1.93% in experiment [3]; -4.97% in experiment [4]; 7.14% in experiment [5].

For `O=C(Cc1ccccn1)N1CCN(C(=O)c2cccc(-c3ccccn3)c2)CC1`, the activity change, negative = inhibition was -5.26% in experiment [1]; -6.53% in experiment [2]; -1.91% in experiment [3]; -17.7% in experiment [4]; 6.49% in experiment [5].

For the molecule `O=C(CCc1nnc2n(Cc3ccc(F)cc3)c(=O)c3ccccc3n12)Nc1ccc(F)cc1`, the activity change, negative = inhibition in experiment [1] is -5.89%; in experiment [2], 0%; in experiment [3] it was 3.89%; in experiment [4], -7.72%; in experiment [5] it was 1.62%.

As for `COc1ccc(N2C(=O)c3cc4sccc4n3CC2(C)C(=O)NC2CCCCCCC2)cc1OC` (stereo not given), the activity change, negative = inhibition was -1.89% in experiment [1]; 2.25% in experiment [2]; 2.5% in experiment [3]; 7.25% in experiment [4]; -2.14% in experiment [5].

With `O=C(NCCN1CCN(c2cccc3ccc(O)cc23)CC1)c1ccc(F)cc1`, the activity change, negative = inhibition in experiment [1] is -3.74%; in experiment [2], -3.72%; in experiment [3] it was 6.54%; in experiment [4], -14.3%; in experiment [5] it was -43%.

For the molecule `COc1ccc(NC(=O)N2CCn3cccc3C2C)c(OC)c1` (stereo not given), the activity change, negative = inhibition was 3.23% in experiment [1]; 0.805% in experiment [2]; 6.07% in experiment [3]; -0.809% in experiment [4]; 7.27% in experiment [5].

Regarding `CC1=C(C(=O)OC(C)C)C(c2ccccc2Cl)CC(=O)N1Cc1c(F)cccc1F` (stereo not given), the activity change, negative = inhibition was -3.04% in experiment [1]; 2.18% in experiment [2]; 0.095% in experiment [3]; -4.79% in experiment [4]; -11.9% in experiment [5].

As for `CCC(C)NC(=O)c1ccc2c(=O)n(C)c3nn(Cc4cccc(C)c4)c(=O)n3c2c1` (stereo not given), the activity change, negative = inhibition in experiment [1] is 1.12%; in experiment [2], 0%; in experiment [3], 7.68%; in experiment [4] it was -6.46%; in experiment [5], 5.76%.
